Laboratory results published in the supplement of paper PMC8948288.
Shown are siRNA guide strands that differ only in the seed, positions 2 to 7.

Columns and labels:
GL261 = assay: cell viability relative to siNT1 (ATP content); H4 human neuroglioma and GL261 mouse glioma; higher = less toxic; settings: siRNA concentration 25 nM; 96 h; mouse
H4 = assay: as above; settings: siRNA concentration 10 nM; 96 h; human
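Note: cells reverse transfected with siRNA duplexes via lipid reagent, ATP read by luminescence, triplicate wells, values scaled to mean viability with non-targeting control siNT1.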

| Sequence | cell viability (GL261) | cell viability (H4) |
| --- | --- | --- |
| UCCCCGGACAUGUAAACCA | 75.6% | 59% |
| UCCCCGUACAUGUAAACCA | 89% | 84.1% |
| UCCCCUAACAUGUAAACCA | 95.3% | 108% |
| UCCCCUCACAUGUAAACCA | 37.1% | 39.6% |
| UCCCCUGACAUGUAAACCA | 72.1% | 113% |
| UCCCCUUACAUGUAAACCA | 80.9% | 74.8% |
| UCCCGAAACAUGUAAACCA | 50.2% | 75.1% |
| UCCCGACACAUGUAAACCA | 29.5% | 58.5% |
| UCCCGAGACAUGUAAACCA | 79.8% | 69.2% |
| UCCCGAUACAUGUAAACCA | 72.5% | 68.6% |
| UCCCGCAACAUGUAAACCA | 46.1% | 62.2% |
| UCCCGCCACAUGUAAACCA | 13.1% | 15.7% |
| UCCCGCGACAUGUAAACCA | 56.3% | 87.4% |
| UCCCGCUACAUGUAAACCA | 23% | 54.8% |
| UCCCGGAACAUGUAAACCA | 69.6% | 60.5% |
| UCCCGGCACAUGUAAACCA | 16.7% | 31.9% |
| UCCCGGGACAUGUAAACCA | 68.9% | 73% |
| UCCCGGUACAUGUAAACCA | 42% | 49.5% |
| UCCCGUAACAUGUAAACCA | 65.5% | 68% |
| UCCCGUCACAUGUAAACCA | 47.1% | 46.3% |
| UCCCGUGACAUGUAAACCA | 69.7% | 75.2% |
| UCCCGUUACAUGUAAACCA | 61% | 98.3% |
| UCCCUAAACAUGUAAACCA | 36.4% | 76.8% |

| Sequence | cell viability (GL261) | cell viability (H4) |
| --- | --- | --- |
| UCCCUACACAUGUAAACCA | 50.1% | 83.3% |
| UCCCUAGACAUGUAAACCA | 57.5% | 91.3% |
| UCCCUAUACAUGUAAACCA | 35.1% | 72.9% |
| UCCCUCAACAUGUAAACCA | 38.1% | 81.9% |
| UCCCUCCACAUGUAAACCA | 24.1% | 28.6% |
| UCCCUCGACAUGUAAACCA | 63.1% | 77.6% |
| UCCCUCUACAUGUAAACCA | 25.8% | 39.3% |
| UCCCUGAACAUGUAAACCA | 37.5% | 90.3% |
| UCCCUGCACAUGUAAACCA | 13.4% | 21.9% |
| UCCCUGGACAUGUAAACCA | 21.9% | 56.4% |
| UCCCUGUACAUGUAAACCA | 23.7% | 45.3% |
| UCCCUUAACAUGUAAACCA | 57.1% | 76.2% |
| UCCCUUCACAUGUAAACCA | 25.1% | 49% |
| UCCCUUGACAUGUAAACCA | 56.3% | 60.8% |
| UCCCUUUACAUGUAAACCA | 61% | 70.2% |
| UCCGAAAACAUGUAAACCA | 73.7% | 91.5% |
| UCCGAACACAUGUAAACCA | 52.7% | 72.5% |
| UCCGAAGACAUGUAAACCA | 62.5% | 71.3% |
| UCCGAAUACAUGUAAACCA | 37.1% | 90.1% |
| UCCGACAACAUGUAAACCA | 56.2% | 73.9% |
| UCCGACCACAUGUAAACCA | 12.7% | 58.1% |
| UCCGACGACAUGUAAACCA | 47.1% | 84.5% |
| UCCGACUACAUGUAAACCA | 41.3% | 51.5% |

| Sequence | cell viability (GL261) | cell viability (H4) |
| --- | --- | --- |
| UCCGAGAACAUGUAAACCA | 55.6% | 93.3% |
| UCCGAGCACAUGUAAACCA | 19.1% | 49.8% |
| UCCGAGGACAUGUAAACCA | 38.7% | 66% |
| UCCGAGUACAUGUAAACCA | 32.3% | 59.4% |
| UCCGAUAACAUGUAAACCA | 47.1% | 91.5% |
| UCCGAUCACAUGUAAACCA | 38.8% | 58.2% |
| UCCGAUGACAUGUAAACCA | 42.7% | 83.6% |
| UCCGAUUACAUGUAAACCA | 43.5% | 87.1% |
| UCCGCAAACAUGUAAACCA | 46.7% | 86.7% |
| UCCGCACACAUGUAAACCA | 22.2% | 67.3% |
| UCCGCAGACAUGUAAACCA | 42.4% | 86.9% |
| UCCGCAUACAUGUAAACCA | 45.5% | 64.3% |
| UCCGCCAACAUGUAAACCA | 40.4% | 65.9% |
| UCCGCCCACAUGUAAACCA | 16% | 61.6% |
| UCCGCCGACAUGUAAACCA | 48.5% | 85.5% |
| UCCGCCUACAUGUAAACCA | 19.1% | 83% |
| UCCGCGAACAUGUAAACCA | 81.6% | 83.3% |
| UCCGCGCACAUGUAAACCA | 25.9% | 59.9% |
| UCCGCGGACAUGUAAACCA | 32.9% | 56.2% |
| UCCGCGUACAUGUAAACCA | 71.1% | 76.9% |
| UCCGCUAACAUGUAAACCA | 75.2% | 70.8% |
| UCCGCUCACAUGUAAACCA | 15.8% | 66.7% |
| UCCGCUGACAUGUAAACCA | 61.4% | 74.4% |

| Sequence | cell viability (GL261) | cell viability (H4) |
| --- | --- | --- |
| UCCGCUUACAUGUAAACCA | 41.5% | 89% |
| UCCGGAAACAUGUAAACCA | 57% | 72.9% |
| UCCGGACACAUGUAAACCA | 7.79% | 36.7% |
| UCCGGAGACAUGUAAACCA | 40.1% | 55.9% |
| UCCGGAUACAUGUAAACCA | 38.6% | 52.1% |
| UCCGGCAACAUGUAAACCA | 36.2% | 56.1% |
| UCCGGCCACAUGUAAACCA | 11.5% | 25% |
| UCCGGCGACAUGUAAACCA | 15.5% | 71.2% |
| UCCGGCUACAUGUAAACCA | 17.7% | 27% |
| UCCGGGAACAUGUAAACCA | 39.7% | 61.5% |
| UCCGGGCACAUGUAAACCA | 14.6% | 14.2% |
| UCCGGGGACAUGUAAACCA | 19.7% | 26.6% |
| UCCGGGUACAUGUAAACCA | 16% | 35.6% |
| UCCGGUAACAUGUAAACCA | 47% | 73% |
| UCCGGUCACAUGUAAACCA | 14.2% | 30.8% |
| UCCGGUGACAUGUAAACCA | 72% | 62.8% |
| UCCGGUUACAUGUAAACCA | 34.5% | 64.6% |
| UCCGUAAACAUGUAAACCA | 50.2% | 80.3% |
| UCCGUACACAUGUAAACCA | 56.4% | 72.3% |
| UCCGUAGACAUGUAAACCA | 47.8% | 84.7% |
| UCCGUAUACAUGUAAACCA | 40.4% | 105% |
